# The supplement of paper PMC6828730
# Counter-ions that a name gives are not always drawn. Some of the results follow. Repeats are few or missing, and single values can be far off.
# Test system: hiPSC-derived cardiomyocytes
# Assay: time to death of most cells in well after compound addition (days); higher = less cardiotoxic
# Settings: screen: 1; 10 µM
row,Compound,time to death of most cells in well
1,C[C@]1(O)C[C@@H](c2nc(-c3ccc4ccc(-c5ccccc5)nc4c3)c3c(N)nccn32)C1 [Linsitinib (OSI-906)],> 7
2,"CCCS(=O)(=O)Nc1ccc(F)c(C(=O)c2c[nH]c3ncc(-c4ccc(Cl)cc4)cc23)c1F [Vemurafenib (PLX4032, RG7204)]",> 7
3,OCCn1cc(-c2cnc3nnn(Cc4ccc5ncccc5c4)c3n2)cn1,> 7
4,COc1ccc(-c2nc(N3CCOCC3)c3sc(CN(C)c4ncc(C(=O)NO)cn4)cc3n2)cn1,4.5
5,CNC(=O)c1cccc(-c2ccc3c(N4CCOC[C@@H]4C)nc(N4CCOC[C@@H]4C)nc3n2)c1 [Vistusertib (AZD2014)],6
6,COc1cc2ncnc(Nc3cccc(Cl)c3F)c2cc1OC(=O)N1CCN(C)C[C@H]1C,6.5
7,O=C(Nc1cccc(Cl)c1)Nc1ncc(CCNc2ncnc3ccsc23)s1 [SNS-314 Mesylate],> 7
8,C=CC(=O)Nc1cccc(Sc2nc(Nc3ccc(N4CCN(C)CC4)cc3)ncc2Cl)c1,2
9,COc1ccc2c(c1)/C(=C/c1cnc[nH]1)C(=O)N2,> 7
10,CC(C)(C)c1cc(C=C(C#N)C#N)cc(Br)c1O,> 7
11,C[C@H](NC(=O)/C(C#N)=C/c1cccc(Br)n1)c1ccccc1,> 7
12,COc1cc2c(Oc3ccc4[nH]c(C)cc4c3F)ncnc2cc1OCCCN1CCCC1 [Cediranib (AZD2171)],2
13,COc1c(C)c(C(=O)c2ccc(N)c(C(=O)O)c2)n2ccccc12,> 7
14,COc1ncc(-c2ccc3nccc(-c4ccnnc4)c3c2)cc1NS(=O)(=O)c1ccc(F)cc1F,3.5
15,COc1ccccc1-c1cc(Nc2cccc(CS(N)(=O)=O)c2)ncn1,0
16,CN1CCC(CNc2ccc3ncc(-c4cccc(OC(F)(F)F)c4)n3n2)CC1 [SGI-1776 free base],1.5
17,O=C(Nc1nc2cccc(-c3ccc(CN4CCS(=O)(=O)CC4)cc3)n2n1)C1CC1 [Filgotinib (GLPG0634)],3
18,CC(=O)c1c(C)c2cnc(Nc3ccc(N4CCNCC4)cn3)nc2n(C2CCCC2)c1=O,> 7
19,COc1cc2c(c(OC)c1OC)-c1c(cc3c(c1OC)OCO3)CC(C)C(C)C2 (stereo unspecified) [Schisandrin B (Sch B)],> 7
20,O=c1ncn2nc(Sc3ccc(F)cc3F)ccc2c1-c1c(Cl)cccc1Cl,2.5
21,CN1CCN(c2nc(C3=C(c4c[nH]c5ccccc45)C(=O)NC3=O)c3ccccc3n2)CC1 [Sotrastaurin],> 7
22,COc1cc2ncnc(Oc3ccc(CC(=O)Nc4cnn(C(C)C)c4)cc3)c2cc1OC,> 7
23,Clc1ccc(Nc2nnc(Cc3ccncc3)c3ccccc23)cc1 [Vatalanib (PTK787) 2HCl],> 7

# Test system: hiPSC-derived cardiomyocytes
# Assay: time to death of most cells in well after compound addition (days); higher = less cardiotoxic; extreme values may be limits of the assay
# Settings: screen: 2; 10 µM
row,Compound,time to death of most cells in well
1,O=C(O)[C@]1(Cc2cccc(Nc3nccs3)n2)CC[C@@H](Oc2cccc(Cl)c2F)CC1,> 7
2,COc1ccc(CNC(=O)Nc2ncc([N+](=O)[O-])s2)cc1,2
3,O=c1c(O)c(-c2ccc(O)c(O)c2)oc2cc(O)cc(O)c12 [Quercetin],> 7
4,Cn1cc(C2=C(c3ccc(Cl)cc3Cl)C(=O)NC2=O)c2ccccc21,3
5,COc1cc(N2CCC(N3CCN(C)CC3)CC2)ccc1Nc1ncnc(Nc2ccccc2S(=O)(=O)C(C)C)n1,> 7
6,COc1ccc(-c2cc3c(C)nc(N)nc3n([C@H]3CC[C@H](OCCO)CC3)c2=O)cn1,2.5
7,C=CC(=O)Nc1cccc(Oc2nc(Nc3ccc(N4CCN(C)CC4)cc3OC)ncc2Cl)c1,1
8,CN1CCN(c2ccc3nc(-c4c(N)c5c(F)cccc5[nH]c4=O)[nH]c3c2)CC1 [Dovitinib (TKI-258) Dilactic Acid],3.5
9,N#Cc1c(O)c2c(-c3ccc(-c4ccccc4O)cc3)csc2[nH]c1=O,> 7
10,Cn1cc(-c2ccc3nnc(C(F)(F)c4ccc5ncccc5c4)n3n2)cn1,1.5
11,O=C(O)CCC(=O)Nc1ccc(Br)cn1 [Bikinin],3.5
12,CN1CCC(Nc2nc(Nc3ccc(Oc4ccccc4)cc3)c3c(=O)[nH]cc(Br)c3n2)CC1,0.5
13,O=C(NOCC(O)CO)c1cc(Br)c(F)c(F)c1Nc1ccc(I)cc1F (stereo unspecified),> 7
14,Cc1nc(N)sc1-c1ccnc(Nc2ccc(N3CCOCC3)cc2)n1,> 7
15,CC(C)(C#N)c1ccc(N2C(=O)OCc3cnc4ccc(-c5cnc6ccccc6c5)cc4c32)cc1,3.5
16,C[C@]1(O)C[C@@H](c2nc(-c3ccc4ccc(-c5ccccc5)nc4c3)c3c(N)nccn32)C1 [Linsitinib (OSI-906)],> 7
17,"CCCS(=O)(=O)Nc1ccc(F)c(C(=O)c2c[nH]c3ncc(-c4ccc(Cl)cc4)cc23)c1F [Vemurafenib (PLX4032, RG7204)]",> 7
18,OCCn1cc(-c2cnc3nnn(Cc4ccc5ncccc5c4)c3n2)cn1,> 7
19,COc1ccc(-c2nc(N3CCOCC3)c3sc(CN(C)c4ncc(C(=O)NO)cn4)cc3n2)cn1,3.5

row,Compound,time to death of most cells in well
1,CNC(=O)c1cccc(-c2ccc3c(N4CCOC[C@@H]4C)nc(N4CCOC[C@@H]4C)nc3n2)c1 [Vistusertib (AZD2014)],3.5
2,COc1cc2ncnc(Nc3cccc(Cl)c3F)c2cc1OC(=O)N1CCN(C)C[C@H]1C,3
3,O=C(Nc1cccc(Cl)c1)Nc1ncc(CCNc2ncnc3ccsc23)s1 [SNS-314 Mesylate],> 7
4,C=CC(=O)Nc1cccc(Sc2nc(Nc3ccc(N4CCN(C)CC4)cc3)ncc2Cl)c1,3.5
5,COc1ccc2c(c1)/C(=C/c1cnc[nH]1)C(=O)N2,> 7
6,CC(C)(C)c1cc(C=C(C#N)C#N)cc(Br)c1O,> 7
7,C[C@H](NC(=O)/C(C#N)=C/c1cccc(Br)n1)c1ccccc1,6.5
8,COc1cc2c(Oc3ccc4[nH]c(C)cc4c3F)ncnc2cc1OCCCN1CCCC1 [Cediranib (AZD2171)],1.5
9,COc1c(C)c(C(=O)c2ccc(N)c(C(=O)O)c2)n2ccccc12,> 7
10,COc1ncc(-c2ccc3nccc(-c4ccnnc4)c3c2)cc1NS(=O)(=O)c1ccc(F)cc1F,1.5
11,COc1ccccc1-c1cc(Nc2cccc(CS(N)(=O)=O)c2)ncn1,> 7
12,CN1CCC(CNc2ccc3ncc(-c4cccc(OC(F)(F)F)c4)n3n2)CC1 [SGI-1776 free base],0.5
13,O=C(Nc1nc2cccc(-c3ccc(CN4CCS(=O)(=O)CC4)cc3)n2n1)C1CC1 [Filgotinib (GLPG0634)],2
14,CC(=O)c1c(C)c2cnc(Nc3ccc(N4CCNCC4)cn3)nc2n(C2CCCC2)c1=O,> 7
15,COc1cc2c(c(OC)c1OC)-c1c(cc3c(c1OC)OCO3)CC(C)C(C)C2 (stereo unspecified) [Schisandrin B (Sch B)],> 7
16,O=c1ncn2nc(Sc3ccc(F)cc3F)ccc2c1-c1c(Cl)cccc1Cl,2
17,CN1CCN(c2nc(C3=C(c4c[nH]c5ccccc45)C(=O)NC3=O)c3ccccc3n2)CC1 [Sotrastaurin],6
18,COc1cc2ncnc(Oc3ccc(CC(=O)Nc4cnn(C(C)C)c4)cc3)c2cc1OC,> 7
19,Clc1ccc(Nc2nnc(Cc3ccncc3)c3ccccc23)cc1 [Vatalanib (PTK787) 2HCl],> 7
